Data: PubChem BioAssay AID1454 (National Center for Advancing Translational Sciences (NCATS), 2008)
Out of some 130,000 compounds screened, about 550 (0.42%) were called active. Another 4% or so got no clear call; they are omitted. Calls follow the shape of the dose curve; as a rule, active = well fitted inhibition curve with a large enough effect; inconclusive = small, poorly fitted or top-dose-only effect, or effect the other way; inactive = flat fitted curve, though single readings scatter. The list shows a part of the results, in another mix than the full data. A structure can be active in one record and inactive in another.

Assay: qHTS Assay for Inhibitors of the ERK Signaling Pathway using a Homogeneous Screening Assay; Stimulation with EGF; also: nearly all actives have a fitted effect of over 55% in size;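 as to activity change, negative = inhibition: plate controls were stimulated vehicle wells for no effect and unstimulated vehicle basal for full effect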
Details: HEK293-V1b, EGF-stimulated phospho-ERK AlphaScreen; activity change, negative = inhibition: at the top concentration
Outline: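 Cell line HEK293 (stable V1b), low serum overnight. Pretreatment: compound 30 min, 37C. EGF 25 nM, 5 min. Detection: SureFire AlphaScreen, 5 h RT. AC50 via standard Hill equation.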
Potency is read from the fitted curve at half-maximal effect.

Q: Which Potency does the source give for `O=C(CCc1ccc(O)cc1)c1c(O)cc(O)cc1O` here?
A: The Potency was “inactive”.

Q: Which Potency does the source give for `O=C1c2ccc(O)c(O)c2C(=O)c2c(O)ccc(O)c21` here?
A: The Potency was active: 7.94 µM.

Q: With `Oc1cc(O)c2c(c1)O[C@H](c1ccc(O)c(O)c1)[C@H](O)C2` as the molecule, how does the Potency read?
A: The Potency was “inactive”.

Q: Which Potency does the source give for `Nc1nc2ccc(OC(F)(F)F)cc2s1` here?
A: The Potency was “inactive”.

Q: Which Potency does the source give for `Cc1cccc2cc(/C=N/NC(=O)c3ccccc3O)c(Cl)nc12` here?
A: The Potency was active: 20 µM.

Q: Which “activity change, negative = inhibition” value does the source give for `O=C(C1=C[C@H](c2coc3ccccc3c2=O)C[C@H](OCCCCO)O1)N1CCN(Cc2ccccc2)CC1` here?
A: Its value is inactive: -5.52% [at 57.5 µM].

Q: With `COc1ccc(/C=C2/SC(=S)N(CCCC(=O)Nc3ccc(O)cc3)C2=O)cc1` as the molecule, how does the “activity change, negative = inhibition” value read?
A: Its value is inactive: 4.05% [at 57.5 µM].

Q: Which Potency does the source give for `O=c1oc2ccccc2cc1-c1csc(Nc2ccc(O)cc2)n1` here?
A: Its Potency is active: 39.8 µM.

Q: With `COC1/C=C/OC2(C)Oc3c(C)c(O)c4c(O)c(c(/C=N/N5CCN(C)CC5)c(O)c4c3C2=O)NC(=O)/C(C)=C/C=C/C(C)C(O)C(C)C(O)C(C)C(OC(C)=O)C1C` (stereo not given) as the molecule, how does the “activity change, negative = inhibition” value read?
A: Its value is inactive: -7.28%.

Q: For `C[C@@H](C(=O)O)c1cccc(C(=O)c2ccccc2)c1`, which “activity change, negative = inhibition” value is on record?
A: Its value is inactive: 6.18% [at 25.7 µM].

Q: With `Cc1cc2c(Nc3ccccc3)ncnc2s1` as the molecule, how does the Potency read?
A: Its Potency is active: 14.1 µM.

Q: With `CN1CCc2cccc3c2[C@@H]1Cc1ccc(O)c(O)c1-3` as the molecule, how does the Potency read?
A: Its Potency is “inactive”.

Q: Which Potency does the source give for `CN(C)CCOC(c1ccccc1)c1ccccc1` here?
A: The Potency was “inactive”.

Q: Which Potency does the source give for `Nc1ncnc2c1ncn2[C@@H]1O[C@H](CO)[C@@H](O)[C@H]1O` here?
A: The Potency was “inactive”.

Q: For `COc1ccc([C@H]2CC(=O)c3c(O)cc(O)cc3O2)cc1O`, which “activity change, negative = inhibition” value is on record?
A: The value was inactive: 5.36% [at 57.5 µM].

Q: Which Potency does the source give for `CN(C)CCN(Cc1ccccc1)c1ccccn1` here?
A: Its Potency is “inactive”.

Q: With `Cc1ccc(-c2nnc(N3CCN(C(=O)COc4cccc(C)c4)CC3)c3ccccc23)cc1` as the molecule, how does the Potency read?
A: Its Potency is active: 39.8 µM.

Q: Which Potency does the source give for `N[C@@H]1CONC1=O` here?
A: The Potency was “inactive”.

Q: Which “activity change, negative = inhibition” value does the source give for `O=c1c(OC2OC(CO)C(O)C(O)C2O)c(-c2ccc(O)c(O)c2)oc2cc(O)cc(O)c12` (stereo not given) here?
A: The value was inactive: -3.68%.

Q: Which “activity change, negative = inhibition” value does the source give for `O=C(CCCN1C(=O)/C(=C/c2cccc(Br)c2)SC1=S)Nc1cccnc1` here?
A: The value was inactive: 0.994%.

Q: Which Potency does the source give for `O=C(O)/C=C/c1ccc(O)c(O)c1` here?
A: The Potency was “inactive”.

Q: For `CSc1ccc2c(c1)C(N1CCN(C)CC1)Cc1ccccc1S2` (stereo not given), which “activity change, negative = inhibition” value is on record?
A: The value was inactive: 20.5%.

Q: Which Potency does the source give for `COc1ccc(/C=C2\SC(=O)N(CC(=O)NNC(=O)c3ccccc3O)C2=O)cc1OC` here?
A: Its Potency is active: 12.6 µM.

Q: For `CC(Cc1ccccc1)C(=O)N[C@@H](CO)Cc1ccccc1` (stereo not given in full), which “activity change, negative = inhibition” value is on record?
A: Its value is inactive: 5.31%.

Q: Which Potency does the source give for `CCOc1ccc(-c2csc(/C(C#N)=C\c3ccc(O)c([N+](=O)[O-])c3)n2)cc1` here?
A: Its Potency is active: 12.6 µM.

Q: Which “activity change, negative = inhibition” value does the source give for `O=C(NCC1CC1)[C@H]1C[C@@H]1[C@H](NP(=O)(c1ccccc1)c1ccccc1)c1ccccc1` here?
A: Its value is inactive: 5.13%.

Q: For `CN1C[C@@H]2C(c3ccccc3)C3(c4ccc(C#N)cc4)CC2(C3)[C@H]1c1ccccc1` (stereo not given in full), which “activity change, negative = inhibition” value is on record?
A: The value was inactive: 1.6%.

Q: Which “activity change, negative = inhibition” value does the source give for `O=C(O)[C@@H](O)c1ccccc1` here?
A: The value was inactive: -2.04% [at 57.5 µM].

Q: For `OCCOCCN1CCN(C2=Nc3ccccc3Sc3ccccc32)CC1`, which “activity change, negative = inhibition” value is on record?
A: Its value is inactive: 23.5%.

Q: With `Cn1cccc1/C=N/N1CCN(Cc2cccc3ccccc23)CC1` as the molecule, how does the Potency read?
A: Its Potency is active: 17.8 µM.
